Our source for the viability index values is the supplement of paper PMC4723716.

± gives the uncertainty stated by the source. Whole data set: some 9,900 compounds, median “viability index relative to DMSO control” near 1, cut for the lowest 2% near 0.85. This is one part of the list.

The test has as its system Plasmodium falciparum NF54 stage V gametocytes. In words: viability index relative to DMSO control (fraction); higher = less gametocyte killing. Conditions: 2.5 µM, incubation time: 72 h. The gist of the method: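 P. falciparum NF54 stage V gametocytes in serum-free screening medium (0.75% gametocytemia, 1.25% hematocrit, 10 µl) were incubated with compound at 2.5 µM in 1,536-well plates for 72 hr at 37°C under low oxygen. Then 3 µl of 2.5 µM MitoTracker Red CMXRos plus 0.13% saponin was added for one to two hours. One field per well was imaged, 20–70 µm2 red particles were counted, and the viability index was the count divided by the plate mean of DMSO wells.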

[1] abbreviates: library set: Broad Institute DOS.

In turn, `CO[C@@H](CN(C)C(=O)C1CCOCC1)[C@H](C)CN(C(=O)Nc1ccc(C(F)(F)F)cc1)[C@@H](C)CO` registered a viability index under setting [1] of 1.06 ± 0.085.
Still for that read-out and setting: the same measure for `CC(C)NC(=O)N1CC(=O)N2[C@H](C1)[C@@H](c1ccc(/C=C/c3ccccc3)cc1)[C@@H]2CO`: 1.12 ± 0.00062; for `C[C@@H]1CN([C@@H](C)CO)C(=O)c2cc(NS(=O)(=O)c3ccccc3)ccc2O[C@@H](C)CCCCO[C@@H]1CN(C)C(=O)C1CCCCC1`: 1.11 ± 0.056; for `CO[C@H](CN(C)Cc1nccs1)[C@H](C)CN([C@H](C)CO)S(=O)(=O)c1ccc(F)cc1`: 1.03 ± 0.0069.
Still for that read-out and setting: under `C[C@H](NC(=O)C[C@H]1CC[C@@H]2[C@@H](COc3ccc(NC(=O)C4CCOCC4)cc3C(=O)N2C)O1)c1ccccc1` stands 1.13 ± 0.19; under `O=C(C[C@H]1C[C@@H]2c3cc(NC(=O)c4ccc5c(c4)OCO5)ccc3O[C@@H]2[C@@H](CO)O1)NCCN1CCCCC1`, 1.06 ± 0.078; under `C[C@H](CO)N1C[C@H](C)[C@@H](CN(C)S(=O)(=O)c2cn(C)cn2)Oc2cc(C#Cc3cccc(F)c3)ccc2S1(=O)=O`, 1.05 ± 0.09.
Still for that read-out and setting: the same measure for `CC(C)CC#Cc1ccc([C@@H]2[C@H]3CN(C(=O)Nc4ccccc4)CCCCN3[C@H]2CO)cc1`: 0.542 ± 0.086.
Under setting [1], `C[C@@H](NC(=O)C[C@H]1C=C[C@H](NC(=O)c2cccnc2)[C@@H](CO)O1)c1ccccc1` had a viability index of 0.909 ± 0.047.
Same read-out and setting: the same measure for `CN1C(=O)c2cc(NC(=O)c3ccc(F)c(F)c3)ccc2OC[C@@H]2O[C@@H](CC(=O)N3CCCCC3)CC[C@H]21`: 0.912 ± 0.078.
Still for that read-out and setting: under `CO[C@@H]1CN(C)C(=O)c2ccc(NC(=O)CN(C)C)cc2OC[C@@H](C)N(C(=O)C2CCCCC2)C[C@H]1C` stands 1.092 ± 0.0038.
On the same count and under the same terms, the same measure for `CN1C(=O)c2cc(NC(=O)Cc3cccs3)ccc2OC[C@H]2O[C@@H](CC(=O)N[C@H]3CCN(Cc4ccccc4)C3)CC[C@@H]21`: 1.11 ± 0.072; for `O=C(c1ccncc1)N1C[C@@H]2[C@H](c3ccccc31)[C@H](CO)N2C(=O)CN1CCOCC1`: 1.07 ± 0.073; for `CO[C@H]1CC[C@H]2CCOc3c(C#N)cccc3C(=O)N(C)C[C@@H](OC)[C@H](C)C(=O)N(C)C[C@H]1O2`: 1.1 ± 0.016.
`COc1ccc(CN2C[C@H](O)COC[C@@H]3O[C@@H](CC(=O)N(C)C)CC[C@H]32)cc1` registered a viability index under setting [1] of 1.048 ± 0.0099.
Consider `COc1ccc(NC(=O)N(C)C[C@@H]2Oc3c(NC(=O)CCCCCC(=O)Nc4ccccc4N)cccc3C(=O)N([C@@H](C)CO)C[C@@H]2C)cc1`, for which, under setting [1], the viability index was 0.943 ± 0.058.
On the same count and under the same terms, under `Cc1ccccc1S(=O)(=O)N1CC[C@@H]2[C@H]1c1cc(-c3cccc(F)c3)ccc1N(C)[C@H]2CO` stands 0.938 ± 0.1; under `CNC[C@H]1Oc2ccc(NS(=O)(=O)c3ccc(OC)cc3)cc2C(=O)N([C@@H](C)CO)C[C@@H]1C`, 1.01 ± 0.011; under `COc1ccc(S(=O)(=O)Nc2ccc3c(c2)OC[C@@H](C)NC[C@H](C)[C@H](OC)CN(C)C3=O)cc1`, 1.013 ± 0.0035.
Same read-out and setting: under `C[C@H]1CCCCO[C@H](CN(C)Cc2ccncc2)[C@@H](C)CN([C@@H](C)CO)C(=O)c2cc(NC(=O)Cc3ccccc3)ccc2O1` stands 1.12 ± 0.013; under `O=C(C1CCCCC1)N1CC(=O)N2[C@H](C1)[C@@H](c1ccc(-c3ccccc3F)cc1)[C@@H]2CO`, 1.01 ± 0.092; under `CCC(=O)Nc1ccc2c(c1)C(=O)N(C)C[C@@H](OC)[C@@H](C)CN(C(=O)Cc1cccnc1)[C@@H](C)CO2`, 1.04 ± 0.045.
`CN1C(=O)c2cc(NC(=O)c3cccc(C(F)(F)F)c3)ccc2OC[C@@H]2O[C@H](CC(=O)NCCN3CCCC3)CC[C@@H]21` registered a viability index under setting [1] of 1.09 ± 0.12.
`COc1ccccc1S(=O)(=O)N1CC[C@@H]2[C@H]1c1cc(-c3ccc(C#N)cc3)ccc1N[C@@H]2CO` displayed a viability index under setting [1] of 1 ± 0.15.
`CO[C@@H]1CN(C)C(=O)c2cc(NC(=O)C3CCCCC3)ccc2OC[C@H](C)N(C(=O)c2ccccc2)C[C@H]1C` yielded a viability index under setting [1] of 1.007 ± 0.0062.
Under setting [1], `O=C(C[C@H]1CC[C@H]2[C@@H](COC[C@@H](O)CN2Cc2nccs2)O1)NCc1ccccc1Cl` registered a viability index of 1.1 ± 0.03.
Still for that read-out and setting: the same measure for `COc1ccc2c3c([C@H](CO)N(C[C@]33CCN(CC3)C(=O)c3ccccn3)S(C)(=O)=O)n(C)c2c1`: 1.04 ± 0.0057; for `C[C@@H]1C/C=C/C[C@@H](c2ccccc2)NC(=O)[C@@H](C)N(C)C(=O)c2ccccc2O1.C[C@@H]1C/C=C\C[C@@H](c2ccccc2)NC(=O)[C@@H](C)N(C)C(=O)c2ccccc2O1`: 1.04 ± 0.03.
The compound `C[C@H]1CN([C@@H](C)CO)C(=O)c2c(c3ccccc3n2C)-c2ccccc2CO[C@H]1CN(C)S(=O)(=O)c1ccc(C(F)(F)F)cc1` displayed a viability index (library set: Broad Institute Blood Stage) of 0.705 ± 0.04.
As to `CO[C@@H]1CN(C)C(=O)c2cc(NC(=O)C3CCOCC3)ccc2OC[C@H](C)NC[C@@H]1C`, the viability index under setting [1] stood at 0.962 ± 0.028.
`C[C@H]1CN([C@@H](C)CO)C(=O)CCCn2cc(nn2)CO[C@H]1CN(C)C(=O)Nc1ccc2c(c1)OCO2` displayed a viability index under setting [1] of 1.06 ± 0.027.
For `CO[C@H]1CN(C)C(=O)c2ccc(NC(=O)C3CC3)cc2OC[C@@H](C)N(C(C)=O)C[C@H]1C`, the viability index under setting [1] came out at 1.1 ± 0.026.
`O=C(c1cc2c(c(-c3cccc(Br)c3)n1)[C@@H](CCO)NC2)N1CCCCC1` displayed a viability index under setting [1] of 0.988 ± 0.038.
Compound `COc1ccccc1-c1cn(CC[C@@H]2CC[C@@H](NC(=O)C3CCCCC3)[C@@H](CO)O2)nn1` returned a viability index under setting [1] of 1.04 ± 0.077.
The same measure, in the same setting: under `C[C@H]1CCCCO[C@H](CN(C)C(=O)Cc2ccccc2)[C@@H](C)CN([C@@H](C)CO)C(=O)c2cc(NS(C)(=O)=O)ccc2O1` stands 0.997 ± 0.015.
The same measure, in the same setting: under `C[C@H](CO)N1C[C@H](C)[C@@H](CN(C)CC2CCCCC2)Oc2ccc(N(C)C)cc2C1=O` stands 0.995 ± 0.15.
On the same count and under the same terms, the same measure for `CN(C)C(=O)c1cccc(-c2ccc([C@@H]3[C@H]4CNC[C@@H]3N4Cc3ccc4c(c3)OCO4)cc2)c1`: 1.023 ± 0.0077; for `C[C@H]1CCCCO[C@@H](CN(C)C(=O)NC2CCCCC2)[C@@H](C)CN([C@@H](C)CO)C(=O)c2cc(N(C)C)ccc2O1`: 1.17 ± 0.036.
Under setting [1], `Cc1ccc(NC(=O)C[C@H]2CC[C@H]3[C@@H](COc4ccc(NC(=O)c5ccc(F)cc5)cc4C(=O)N3C)O2)cc1` showed a viability index of 1.17 ± 0.17.
Under setting [1], `COc1ccccc1CNC(=O)C[C@H]1C=C[C@H](NC(=O)CC2CC2)[C@@H](CO)O1` had a viability index of 1.06 ± 0.12.
Consider `COc1ccc2c3c([C@@H](CO)N(C[C@]33CCN(CC3)C(=O)Nc3ccccc3F)C(C)=O)n(C)c2c1`, for which the viability index under setting [1] came to 1.03 ± 0.042.
Same read-out and setting: the same measure for `COc1ccccc1CN1CC[C@@H]2[C@H]1c1cc(-c3cccc(C(=O)N(C)C)c3)ccc1N[C@@H]2CO`: 1.09 ± 0.028.
Compound `CNC[C@H]1OCCCC[C@H](C)Oc2ccc(N)cc2C(=O)N([C@H](C)CO)C[C@@H]1C` displayed a viability index under setting [1] of 1.122 ± 0.0028.
